This is an account of results in article PMC12136788.

The list shows a part of the results.

The chains are these.
B1: chr8:104447970:104447971:+_ENSG00000164934_ENST00000297579|hu_hu|hu_hu_hu_mus_False|68_98 (ssRNA)
RNA: GGGAGUUCUACAGUCCGACGAUCAUACACUUCCCUGCUUCGACUUUUGUCCACAGGAAAGAUUCUAAUAGAUUUAUCAAAGCUGGCAGACACAAAUUCCUUCCCAGUGGGAGAGUAGUCCACAUCAAGUACUGCAGACACGUGCAACAGAGGAUUGAGCAUCA
B2: chr16:32019706:32019707:-_ENSMUSG00000022781_ENSMUST00000023467|mus_mus|FALSE|FALSE (ssRNA)
RNA: GGGAGUUCUACAGUCCGACGAUCCCCUUUCAGUUUAGGCUCUGAACUGAAACACUCCGCACACCAGCCGGUCCUGACUUCUAUAGGAAGCUAAGCAUGUCAAGCUCCUUUCCCAAUGUAAAGAGCUACAUCAAUCAUUUUAUCCAACAGAGGAUUGAGCAUCA
B3: chr2:198351390:198351391:-_ENSG00000144381_ENST00000345042|hu_hu|hu_hu_hu_mus_False|8_28 (ssRNA)
RNA: GGGAGUUCUACAGUCCGACGAUCUCAUUCCCACCCUCCACAGAAAGGCUGCUUCUGAACUCUCAUGUGGUGACACAGCGCUACAGUCCUGAUGCUCACAGAACAGUAGUAAAAAUGCAGUGAUUUAUUAAGUUGAAAGGACACCAACAGAGGAUUGAGCAUCA
B4: chr20:52835626:52835627:+_ENSG00000101132_ENST00000441080|hu_mus|motif|central (ssRNA)
RNA: GGGAGUUCUACAGUCCGACGAUCUGCCUCGAGGUUUAUGUUGCUGCCAAAUUUCGCGUAUAGCUGCACCUUCAGGUCGGCGGACACCCGCUGGAUGGACGCCACUCUGGACUCUAAGGCAUCAAUCUCUUCUUGCAAAGUUUUCAACAGAGGAUUGAGCAUCA
B5: chr11:102258902:102258903:+_ENSMUSG00000006575_ENSMUST00000006750|mus_mus|FALSE|FALSE (ssRNA)
RNA: GGGAGUUCUACAGUCCGACGAUCGAAAUUAACAAACUCCUCGGAAGAGUCAUCAAUGGGUUCUGCUGUGUACUUCUCUAGCAGGGUUUUCACAGAGAACCUGCACACGGUGAUCAGGUUCCUGCGCUCCACGAUCACGUUGCGCAACAGAGGAUUGAGCAUCA
B6: chr7:149068622:149068623:-_ENSMUSG00000025139_ENSMUST00000001950|mus_hu|mus_mus_mus_hu_False|18_78 (ssRNA)
RNA: GGGAGUUCUACAGUCCGACGAUCGUGAGGCCUCUGAGUGUGGCUUGUGGUCUGUCCUGUCUGCAGUUUGUUAAUAUCACGGAACAUACCAUCUAGAACGUUCCAGUCCCGCCUGACCAUCCACCCUCCAAUGGAGAAGAAAUCCAACAGAGGAUUGAGCAUCA

The target in the assay is T1, UNK ZnF1-3 (human, UniProt Q9C0B0 31-174).
T1 sequence: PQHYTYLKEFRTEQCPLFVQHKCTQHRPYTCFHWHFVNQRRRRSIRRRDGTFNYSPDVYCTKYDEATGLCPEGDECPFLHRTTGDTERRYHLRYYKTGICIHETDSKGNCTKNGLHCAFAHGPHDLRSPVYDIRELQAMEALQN
As to the kind of experiment: nsRBNS (natural sequence RNA bind-n-seq); RBNS binding buffer (assumed for nsRBNS): 25 mM Tris pH 7.5, 150 mM KCl, 3 mM MgCl2, 0.01% Triton X-100, 500 ug/ml BSA, 20 U/ml SUPERase-In, 4 C; UNK is unkempt and MSI1 is Musashi-1; names of the RNAs are library labels; protein concentration not given here; high values mean tight binding.
For B1, the binding signal worked out at 1.02 enrichment R.
The figure for B2 is 1.01 enrichment R.
The figure for B3 is 1.59 enrichment R; for B4 it is 0.883 enrichment R.
For B5 the value was 0.409 enrichment R.
With B6, the binding signal was found to be 0.888 enrichment R.
